# Measured values reported in publication PMC4336329 (PLoS ONE, 2015).
# Among all 310,000 compounds or so, about 2,200 (0.71%) showed an effect of 50% or more. Effects have a minus sign here. Some of the results follow.
# Molecular target: human ether-à-go-go-related gene (hERG) potassium channel (human, UniProt Q12809)
# Experiment: primary screen, population patch clamp on CHO cells stably expressing hERG
# Sequence of human ether-à-go-go-related gene (hERG) potassium channel (Q12809 whole entry, looked up): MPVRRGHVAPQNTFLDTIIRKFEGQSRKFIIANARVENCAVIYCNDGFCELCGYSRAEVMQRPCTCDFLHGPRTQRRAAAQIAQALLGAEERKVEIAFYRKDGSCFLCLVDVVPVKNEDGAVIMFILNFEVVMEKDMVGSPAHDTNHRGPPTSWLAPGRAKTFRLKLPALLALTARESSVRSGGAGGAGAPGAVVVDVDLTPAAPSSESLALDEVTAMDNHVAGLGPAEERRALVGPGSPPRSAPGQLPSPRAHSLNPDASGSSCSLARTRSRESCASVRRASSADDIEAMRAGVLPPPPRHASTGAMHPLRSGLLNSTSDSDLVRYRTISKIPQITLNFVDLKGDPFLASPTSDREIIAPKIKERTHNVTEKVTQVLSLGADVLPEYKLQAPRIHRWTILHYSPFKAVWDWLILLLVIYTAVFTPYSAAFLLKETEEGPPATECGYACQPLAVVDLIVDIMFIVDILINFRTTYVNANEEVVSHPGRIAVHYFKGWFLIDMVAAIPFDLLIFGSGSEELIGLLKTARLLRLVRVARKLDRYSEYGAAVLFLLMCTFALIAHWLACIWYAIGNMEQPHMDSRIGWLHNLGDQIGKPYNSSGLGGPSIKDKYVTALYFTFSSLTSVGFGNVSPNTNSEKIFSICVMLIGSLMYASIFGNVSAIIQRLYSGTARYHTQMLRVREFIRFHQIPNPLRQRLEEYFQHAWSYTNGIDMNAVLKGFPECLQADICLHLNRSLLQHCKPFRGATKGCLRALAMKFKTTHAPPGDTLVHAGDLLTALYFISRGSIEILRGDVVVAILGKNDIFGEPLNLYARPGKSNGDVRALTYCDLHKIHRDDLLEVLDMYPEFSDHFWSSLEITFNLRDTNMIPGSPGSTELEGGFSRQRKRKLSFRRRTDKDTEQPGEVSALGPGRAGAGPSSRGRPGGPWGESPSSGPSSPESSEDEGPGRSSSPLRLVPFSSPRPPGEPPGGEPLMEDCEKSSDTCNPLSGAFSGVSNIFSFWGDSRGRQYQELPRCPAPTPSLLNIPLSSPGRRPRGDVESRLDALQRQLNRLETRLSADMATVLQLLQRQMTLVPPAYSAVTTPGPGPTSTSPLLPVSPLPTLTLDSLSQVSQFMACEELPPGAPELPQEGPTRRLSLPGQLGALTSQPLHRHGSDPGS
row,Compound,"hERG current change (%, negative = inhibition) at 1uM"
1,Cl.N=c1sccn1CC(=O)Nc1ccc(Cl)c(S(=O)(=O)N2CCOCC2)c1,-6.76%
2,O=C(O)CN(c1ccccc1)S(=O)(=O)c1cc(C(F)(F)F)cc(C(F)(F)F)c1,8.81%
3,O=C(COc1coc(CN2CCCc3ccccc32)cc1=O)Nc1ccc([N+](=O)[O-])cc1,11.9%
4,O=C(c1ccccc1SCc1ccc(F)cc1)N1CCOCC1,22.6%
5,COc1ccc(-c2sc(Nc3ccccc3)n[n+]2-c2ccc(F)cc2)c(C)c1C.[Cl-],-26.7%
6,CCCSC(=O)N(CC)CC(=O)Nc1c(CC)cccc1CC,7.75%
7,COc1cccc(CCNC(=O)CC2C(=O)NCCN2Cc2ccc(Cl)c(F)c2)c1 (centres unmarked),6.19%
8,N#Cc1ccc(CSc2nnc(NC(=O)C3CCCO3)s2)cc1 (centres unmarked),6.13%
9,COCCn1c(=NC(=O)CSCC(=O)N2CCOCC2)sc2ccccc21,10.1%
10,COc1ccc(-c2cn3c(C)c(C(=O)NC(C)(C)C)sc3n2)cc1,8.29%
11,O=C(CCc1nnc(-c2ccccc2)o1)NCc1cc(F)ccc1F,0.576%
12,COc1ccc(Cl)cc1NC(=O)CN(C)C(=O)c1cn2ccccc2n1,2.56%
13,O=C(COc1cc2oc(=O)c3c(c2cc1Cl)CCC3)Nc1ccc(CN2CCOCC2)cc1,15.1%
14,CCOc1ccc(C(=O)N2CCN(c3ncccn3)CC2)cc1,2.78%
15,Cc1ccc(-c2ccc(/C=N\NC(=O)c3cc4c(ccc5ccccc54)o3)o2)cc1[N+](=O)[O-],8.49%
16,Cc1cc(C)c(NC(=O)C(C)N2CCCCCC2)c(C)c1.Cl (centres unmarked),-0.673%
17,O=C(NCc1nc2ccccc2[nH]1)C1=C[C@H](c2csc3ccccc23)C[C@H](OCc2ccc(CO)cc2)O1,8.07%
18,Nc1nc(CN2CCN(c3ccccc3F)CC2)nc(Nc2ccc3c(c2)OCCO3)n1,-38%
19,O=S(=O)(NC1CC1)c1ccc(S(=O)(=O)N(Cc2ccccn2)C2CC2)cc1,-1.98%
20,COc1ccc(NC(=O)Cn2nnc(C(=O)NCCc3ccc(OC)c(OC)c3)c2N)cc1,4.26%
21,COc1ccccc1C(=O)NCC(=O)N=Nc1c(O)n(C(C)C)c2ccccc12,4.82%
22,O=C(OCc1ccc([N+](=O)[O-])cc1)c1ccc2ccccc2n1,4.58%
23,Cc1nc2scc(C)n2c(=O)c1S(=O)(=O)NCCc1ccc(Cl)cc1,13.5%

row,Compound,"hERG current change (%, negative = inhibition) at 1uM"
1,COC(=O)c1ccc(N2CCCCC2)c(N)c1,5.36%
2,CCCCCCCCCCCC(=O)NC(Cc1ccc(OC)c([N+](=O)[O-])c1)C(=O)[O-].[NH4+] (centres unmarked),0.0132%
3,CS(=O)(=O)c1ccc2nc(NC(=O)C3=NN(c4ccccc4)C(=O)CC3)sc2c1,-9.56%
4,COc1ccc(NC(=O)N2CCCC2C(=O)NCC2CCCCC2)cc1 (centres unmarked),11.1%
5,O=C(CSc1ccccc1)NC1=NCCS1,10.5%
6,CCC1=NC(c2ccccc2Cl)N(O)C1(C)C (centres unmarked),20.4%
7,CC1CCCN(C(=O)CSc2nnc(-c3ccncc3)n2C)C1 (centres unmarked),29.6%
8,CC(=O)Nc1cccc(C(=O)N/N=C/c2ccc(F)cc2)c1,14.6%
9,Cc1cccc(OC(C)C(=O)Nc2nccs2)c1 (centres unmarked),12.9%
10,Cc1cccc(NC(=O)CSc2nc(C)c(CC(=O)c3ccc(Br)cc3)c(C)c2C#N)c1C,22.3%
11,O=C(NC1CN2CCC1CC2)c1ccc(-c2ccc([N+](=O)[O-])cc2)o1 (centres unmarked),-12.6%
12,CCCNC(=O)NC(=O)CN1C(=O)NC(C)(c2ccc3ccccc3c2)C1=O (centres unmarked),8.72%
13,COc1ccc(C2CC(=O)Nc3ccccc3S2(=O)=O)cc1OC (centres unmarked),11.2%
14,CCC1(COC(=O)Nc2cccc(Cl)c2)COC1,8.83%
15,C=CCNc1nc2c(c(=O)n(C)c(=O)n2C)n1CC,10.9%
16,Cc1ccc(CNC(=O)CN2C(=O)COc3ccc(S(=O)(=O)N4CCCCC4)cc32)o1,12.7%
17,C=C1N2CCC(CC2)C1(O)c1ccccc1C.Cl (centres unmarked),9.13%
18,CCOc1ccccc1OCCn1nnc2ccccc21,5.02%
19,Cc1nc2nc[nH]n2c(=O)c1NC(=O)CCc1ccccc1,2.3%
20,Cc1cccc(C)c1NC(=O)C(c1ccccc1)N1CCC1=O (centres unmarked),7.61%
21,O=C(NC(=S)Nc1cc(C(F)(F)F)ccc1N1CCOCC1)c1ccc(-c2cccc(Cl)c2)o1,2.52%
22,CC(C)Nc1nc(NC(C)C)nc(NS(=O)(=O)c2ccc(N)cc2)n1,1.74%
23,Cc1cc(C)c(S(=O)(=O)c2cccc(C(F)(F)F)c2)c(=O)[nH]1,10.7%

row,Compound,"hERG current change (%, negative = inhibition) at 1uM"
1,CCOC(=O)CC(NC(=O)c1ccccc1)c1ccc(OC)cc1 (centres unmarked),15.1%
2,O=[N+]([O-])c1ccc(C2=NCCO2)cc1,11%
3,COc1cc(C(=O)Oc2ccccc2/C=N/NC(=O)c2ccc(C)c(Cl)c2)cc(OC)c1OC,-2.03%
4,CC[C@@H](C(N)=O)N1CCCC1=O,-2.85%
5,O=C(O)CP(=O)(O)c1ccc(Cl)cc1,3.42%
6,O=C(Nc1cccnc1Cl)c1cccnc1Cl,1.53%
7,COc1ccc(CNC(=O)C2CCCN2S(=O)(=O)c2ccc(Cl)cc2)cc1 (centres unmarked),-1.64%
8,O=C1CC(N2CCOCC2)C(=O)N1c1cccc(Cl)c1 (centres unmarked),3.56%
9,COc1ccccc1N1C(=O)c2ccccc2NC1c1cc(OC)c(OC)c(OC)c1 (centres unmarked),10.7%
10,Cl.O=C(NC12CC3CC(CC(C3)C1)C2)c1ccc(=O)oc1,5.61%
11,Cc1ccc(S(=O)(=O)N2CCC(=O)N(CCOCc3ccccc3)CC2)cc1,12.6%
12,Cc1cc(C)nc(NC2=NCC(=O)N2c2cc(Cl)cc(Cl)c2)n1,5.31%
13,COCCN1CCn2c(nc3cc(NC(C)=O)ccc32)C1,15.7%
14,COc1ccc2c(C)cc(SCC(=O)Nc3cc(C(N)=O)cc(C(N)=O)c3)nc2c1,6.35%
15,Cn1c(=NC(=O)c2ccc3c(c2)OCCO3)sc2cc(S(C)(=O)=O)ccc21,30.4%
16,CC(C)c1ccc(C(=O)Nc2cccnc2)cc1,21.3%
17,COc1ccc(NC(=O)CS(=O)c2ccc(Cl)c(Cl)c2)cc1 (centres unmarked),8.96%
18,CN(CC(=O)Nc1ccccc1Cl)C(=O)c1cc(-c2cccs2)nn1-c1ccccc1,18.3%
19,Cc1ccc(N(CC(=O)O)S(C)(=O)=O)cc1,-2.88%
20,Clc1cccc(Cl)c1Cn1cnc2c(NCc3ccco3)ncnc21,-0.966%
21,COC(=O)c1c(C(=O)OC)c(C)n(Cc2ccco2)c1C,3.81%
22,O=C(NNc1ccc(F)cc1F)c1c(F)cccc1Cl,13.5%
23,OC(COCc1cccs1)CN1CCN(c2ccccn2)CC1 (centres unmarked),-1.22%

row,Compound,"hERG current change (%, negative = inhibition) at 1uM"
1,CC(=O)c1ccc(OC(=O)N2CCOCC2)cc1,13.7%
2,Cc1nnc(SCc2ccccc2)nc1-c1ccccc1,8.84%
3,COc1cc(S(=O)(=O)n2nc(C)cc2C)ccc1Cl,6.71%
4,COc1ccc(OC)c(CNC(=O)C2CCCN(c3ncnc4c3nc3n4CCCCC3)C2)c1 (centres unmarked),-12.7%
5,NCCC(=O)NCCc1cnc[nH]1,18.3%
6,COc1ccc(CCC(N)=O)cc1OC,9.63%
7,CCOc1ccccc1C1NC(=O)NC(C)=C1C(=O)OC1CCCCC1 (centres unmarked),14.7%
8,CC(NC(=O)COC(=O)c1ccc(Cl)cc1O)c1ccc(F)cc1 (centres unmarked),10.3%
9,CC12CN3CN(C1)CC(C)(C3)C2=NO,11.6%
10,COc1cc(NC(=S)N2CCN(S(C)(=O)=O)CC2)cc(OC)c1,9.54%
11,CCCn1c(=O)c(C(=O)NCc2ccccn2)c(O)c2ccccc21,11.3%
12,CCOC(=O)C(CC(=O)c1ccccc1)CC(=O)c1ccccc1,7.93%
13,C/C=C/c1ccc(OC(C)=O)c(OC)c1,8.76%
14,CC1(C)C=Cc2c(c3c(c4c(=O)c(-c5ccc(O)cc5)coc24)OC(C)(C)CC3)O1,12.3%
15,O=C(N/N=C/c1cccc(Oc2ccc([N+](=O)[O-])cc2[N+](=O)[O-])c1)c1cncc(Br)c1,-3.54%
16,O=C(NC1CC1)c1nc2c(nnn2Cc2ccccc2Cl)c(=O)[nH]1,0.187%
17,Cc1nn(CC(=O)N/N=C/c2ccc(F)cc2)c(C)c1[N+](=O)[O-],8.43%
18,CC[C@H]1CC2CN3CCc4c([nH]c5c([C@H]6C[C@H]7[C@H](CC)CN(C)[C@@H](Cc8c6[nH]c6ccccc86)[C@H]7C(=O)OC)c(OC)ccc45)C(C(=O)OC)(C2)C13,6.56%
19,CCOc1ccccc1NC(=O)C(=O)NCC1CCCN1CC (centres unmarked),-12%
20,Cn1c(/C(C#N)=C(\O)c2ccc([N+](=O)[O-])s2)nc2ccccc21,18.1%
